According to the supplement of paper PMC3334620:
The full ranking holds about 33,000 sequences; the median of “E-score (-0.5 to 0.5)” is about -0.04, and the highest 2% start at about 0.36. This is one part of the list.

biological target: T1, Hmlalpha2 (UniProt P0CY09); experiment: PBM E-score (8-mer binding enrichment) (E-score (-0.5 to 0.5)); higher = stronger / more preferred TF binding; most listed sequences are background and not binding sites; settings: protein concentration: 200 nM; construct: GST-full length
T1 sequence: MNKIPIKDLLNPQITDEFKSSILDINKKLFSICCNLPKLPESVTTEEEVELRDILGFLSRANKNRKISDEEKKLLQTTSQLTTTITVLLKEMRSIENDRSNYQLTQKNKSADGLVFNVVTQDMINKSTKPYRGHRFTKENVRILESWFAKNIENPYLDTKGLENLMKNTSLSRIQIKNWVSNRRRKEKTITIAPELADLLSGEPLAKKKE
Outline: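 The E-score, a modified Wilcoxon-Mann-Whitney statistic, was computed by the Universal PBM Analysis Suite for every ungapped eight-base word pooled with its reverse complement. Scans behind it were normalised with masliner after bound GST-tagged yeast transcription factors were detected with fluorescent anti-GST. The proteins, at about 100-200 nM, had been applied to universal all-10-mer Agilent arrays made double-stranded by primer extension.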

How did the “PBM E-score” value turn out when CGTTCTAA was run?
Its value is 0.0634.

GCAGCTAC was tested. Which “PBM E-score” value did it give?
Its value is -0.0513.

AAGATTTA was tested. Which “PBM E-score” value did it give?
Its value is 0.224.

TATATCAA was tested. Which “PBM E-score” value did it give?
The value was 0.136.

CCCATGCG was tested. Which “PBM E-score” value did it give?
The value was -0.0486.

Which “PBM E-score” value does the source give for AGGTCAGC here?
The value was -0.0347.

Which “PBM E-score” value does the source give for CGCCTAAA here?
The value was -0.05.

How did the “PBM E-score” value turn out when CACGCAGC was run?
The value was 0.119.

How did the “PBM E-score” value turn out when ATAGATCG was run?
The value was -0.0602.

With AATACTTG as the sequence, how does the “PBM E-score” value read?
Its value is 0.23.

For AGTACGTC, which “PBM E-score” value is on record?
Its value is -0.043.

CAAGTTAG was tested. Which “PBM E-score” value did it give?
The value was 0.0437.

For CTCTAAAA, which “PBM E-score” value is on record?
The value was -0.0362.

For GAGTTTCA, which “PBM E-score” value is on record?
Its value is 0.0942.

GCGTGTAC was tested. Which “PBM E-score” value did it give?
The value was 0.427.

How did the “PBM E-score” value turn out when CCGTTGTA was run?
Its value is 0.221.

How did the “PBM E-score” value turn out when CCACGCGC was run?
Its value is -0.248.

How did the “PBM E-score” value turn out when GATTTCGC was run?
The value was 0.11.

How did the “PBM E-score” value turn out when AGTGACCC was run?
Its value is -0.278.

With ATTGATCA as the sequence, how does the “PBM E-score” value read?
The value was -0.0281.

For AATATCGC, which “PBM E-score” value is on record?
Its value is -0.112.

For CCCAAACA, which “PBM E-score” value is on record?
Its value is 0.129.

Which “PBM E-score” value does the source give for CGCGATTA here?
The value was 0.0896.

Which “PBM E-score” value does the source give for CTTTTTCC here?
The value was -0.153.

For CCGCCACA, which “PBM E-score” value is on record?
Its value is -0.153.

Which “PBM E-score” value does the source give for AGATATAT here?
The value was 0.0914.

For CGCCAACC, which “PBM E-score” value is on record?
The value was -0.259.

GCATCTCC was tested. Which “PBM E-score” value did it give?
The value was -0.324.

For GGTAGAAA, which “PBM E-score” value is on record?
The value was -0.104.

How did the “PBM E-score” value turn out when AGCGAAAC was run?
Its value is 0.145.

ACACTCTC was tested. Which “PBM E-score” value did it give?
The value was 0.188.

With AGGGTATC as the sequence, how does the “PBM E-score” value read?
The value was -0.16.

How did the “PBM E-score” value turn out when AACACGTC was run?
Its value is 0.377.

AACAACCT was tested. Which “PBM E-score” value did it give?
The value was 0.18.

ACCCCGTG was tested. Which “PBM E-score” value did it give?
The value was -0.0508.

How did the “PBM E-score” value turn out when CCGCTGGA was run?
Its value is -0.149.

Which “PBM E-score” value does the source give for CGTAATAC here?
The value was 0.378.

How did the “PBM E-score” value turn out when ATTATTCG was run?
Its value is 0.117.

With GTAAGGAA as the sequence, how does the “PBM E-score” value read?
The value was 0.11.

With CGAGCGAG as the sequence, how does the “PBM E-score” value read?
Its value is 0.151.

GTAGCATA was tested. Which “PBM E-score” value did it give?
Its value is 0.00571.

For TTAAAAAA, which “PBM E-score” value is on record?
Its value is 0.257.

With CACACTAC as the sequence, how does the “PBM E-score” value read?
Its value is 0.19.

With AATTTAAC as the sequence, how does the “PBM E-score” value read?
The value was 0.344.

With CATGTGCC as the sequence, how does the “PBM E-score” value read?
The value was 0.0973.

CCGTATCC was tested. Which “PBM E-score” value did it give?
The value was -0.243.

How did the “PBM E-score” value turn out when GTCCCGTA was run?
The value was -0.107.

For ATCCACGG, which “PBM E-score” value is on record?
The value was -0.0132.

Which “PBM E-score” value does the source give for CCCATGGC here?
The value was -0.369.

With GTCAAACA as the sequence, how does the “PBM E-score” value read?
The value was 0.19.

For GCGTAACA, which “PBM E-score” value is on record?
Its value is 0.29.

For AATTTGCA, which “PBM E-score” value is on record?
Its value is -0.0461.

CTCATGAA was tested. Which “PBM E-score” value did it give?
The value was -0.0457.

For AGTTTGTG, which “PBM E-score” value is on record?
Its value is -0.0364.

With ATAAACAA as the sequence, how does the “PBM E-score” value read?
Its value is 0.323.

Which “PBM E-score” value does the source give for AGGGATAT here?
Its value is -0.177.

How did the “PBM E-score” value turn out when CTCCTTCA was run?
Its value is -0.245.

How did the “PBM E-score” value turn out when CAGGGGCA was run?
The value was -0.12.

How did the “PBM E-score” value turn out when AAGGATTA was run?
Its value is 0.0726.

With GTACATTA as the sequence, how does the “PBM E-score” value read?
The value was 0.316.

Which “PBM E-score” value does the source give for AGGTTGAC here?
Its value is -0.105.

Which “PBM E-score” value does the source give for ATCAGACA here?
Its value is 0.0303.

With AACTTGCG as the sequence, how does the “PBM E-score” value read?
The value was 0.118.

Which “PBM E-score” value does the source give for CTAGTTAC here?
Its value is 0.0707.

With AGCAACCG as the sequence, how does the “PBM E-score” value read?
Its value is -0.162.

For CATCAGGG, which “PBM E-score” value is on record?
Its value is -0.183.

Which “PBM E-score” value does the source give for ACCCTCCA here?
Its value is -0.325.

How did the “PBM E-score” value turn out when GGTGATTA was run?
The value was 0.0193.

AACGGGCT was tested. Which “PBM E-score” value did it give?
Its value is -0.202.

How did the “PBM E-score” value turn out when CCGATCCA was run?
The value was -0.134.

AATCGGCC was tested. Which “PBM E-score” value did it give?
The value was -0.278.

Which “PBM E-score” value does the source give for GGCAATGA here?
The value was -0.0543.

How did the “PBM E-score” value turn out when CAGGTGAG was run?
The value was -0.27.

Which “PBM E-score” value does the source give for GAGTCGCA here?
Its value is -0.267.

Which “PBM E-score” value does the source give for AAAGTTTC here?
The value was -0.0888.

With CAAGTACA as the sequence, how does the “PBM E-score” value read?
Its value is 0.266.

CACGCTGG was tested. Which “PBM E-score” value did it give?
Its value is -0.123.

Which “PBM E-score” value does the source give for GGCCCCAC here?
Its value is -0.367.

With CTGACTTC as the sequence, how does the “PBM E-score” value read?
Its value is -0.204.

Which “PBM E-score” value does the source give for AAACCTGT here?
The value was 0.0739.

With CAGACGGA as the sequence, how does the “PBM E-score” value read?
Its value is -0.107.

With ACATATTC as the sequence, how does the “PBM E-score” value read?
Its value is 0.3.

With ACTAGCAT as the sequence, how does the “PBM E-score” value read?
Its value is 0.0651.

How did the “PBM E-score” value turn out when CGCATACC was run?
Its value is 0.04.

For AGGCGTAA, which “PBM E-score” value is on record?
Its value is 0.105.

Which “PBM E-score” value does the source give for AAGGCATG here?
The value was 0.0701.

With CCAACGTC as the sequence, how does the “PBM E-score” value read?
The value was -0.149.

CCTTCTCC was tested. Which “PBM E-score” value did it give?
Its value is -0.294.

With CTCAATTA as the sequence, how does the “PBM E-score” value read?
The value was 0.165.

AACGAAGC was tested. Which “PBM E-score” value did it give?
The value was -0.105.

For CGACACGA, which “PBM E-score” value is on record?
Its value is 0.334.

Which “PBM E-score” value does the source give for ACCTGCAT here?
The value was -0.139.

CTAATAAG was tested. Which “PBM E-score” value did it give?
Its value is 0.0542.

GGTCCGCA was tested. Which “PBM E-score” value did it give?
Its value is -0.153.

Which “PBM E-score” value does the source give for AGGCAGTC here?
Its value is -0.2.

With ATCCTCAT as the sequence, how does the “PBM E-score” value read?
Its value is -0.149.

With TCAGGCCA as the sequence, how does the “PBM E-score” value read?
Its value is -0.115.

For AGTGTTAG, which “PBM E-score” value is on record?
The value was 0.0767.

With AGTCATTG as the sequence, how does the “PBM E-score” value read?
The value was -0.213.

How did the “PBM E-score” value turn out when CCACGGCA was run?
Its value is -0.183.

Which “PBM E-score” value does the source give for TAAGGCAA here?
Its value is -0.131.

ATACCTTA was tested. Which “PBM E-score” value did it give?
Its value is -0.0999.

For AGATACCA, which “PBM E-score” value is on record?
Its value is -0.0373.

With ACTCTCAT as the sequence, how does the “PBM E-score” value read?
The value was -0.0381.

With AGCGGAAA as the sequence, how does the “PBM E-score” value read?
The value was -0.113.

How did the “PBM E-score” value turn out when GGCTGTCA was run?
Its value is -0.121.

With ACAGGGAG as the sequence, how does the “PBM E-score” value read?
The value was -0.126.

With AGTGCAGG as the sequence, how does the “PBM E-score” value read?
Its value is -0.159.

Which “PBM E-score” value does the source give for CCGAACTC here?
Its value is -0.114.

With AGCCGTTG as the sequence, how does the “PBM E-score” value read?
Its value is -0.0377.
